Three molecules from paper PMC6824042 can be followed below.

Results are given in words; binding and its absence hold for the method and conditions named. For part of these data: Binding seen in cells or lysates may run through a third protein. Some entries that bind do so weakly or less than the wild type. Where a sequence is shown, tags or fusion partners need not be part of it.

Assay [1] addresses T1, Izumo sperm-egg fusion protein 1 (IZUMO1) (mouse (endogenous in mouse spermatozoa)) (UniProt Q9D9J7).
T1 sequence: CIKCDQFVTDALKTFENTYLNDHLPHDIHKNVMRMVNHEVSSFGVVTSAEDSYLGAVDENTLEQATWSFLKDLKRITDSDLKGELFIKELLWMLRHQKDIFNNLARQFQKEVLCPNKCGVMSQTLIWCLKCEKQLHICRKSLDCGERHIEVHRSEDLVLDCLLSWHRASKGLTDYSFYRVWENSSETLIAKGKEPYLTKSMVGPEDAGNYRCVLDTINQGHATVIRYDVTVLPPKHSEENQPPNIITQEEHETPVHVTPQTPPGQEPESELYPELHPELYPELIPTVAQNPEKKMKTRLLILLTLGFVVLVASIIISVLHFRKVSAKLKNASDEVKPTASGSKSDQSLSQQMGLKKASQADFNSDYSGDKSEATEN
Briefly: condition: only in epididymal spermatozoa before the acrosome reaction; proximity ligation; in situ PLA with IZUMO1 and GLIPR1L1 antibodies on fixed epididymal (acrosome-intact) spermatozoa.

Assay [2] deals with T1, Izumo sperm-egg fusion protein 1 (IZUMO1) (mouse (endogenous in mouse spermatozoa)). Briefly: native gel or EMSA; 1D and 2D BN-PAGE of mouse sperm lysates (non-capacitated, capacitated, acrosome-reacted); band of complex I excised for mass spectrometry; immunoblots with IZUMO1 or GLIPR1L1 antibodies. (In general: In EMSA bound probe runs differently from free probe, usually more slowly.)

The target is the same in assay [3]. Briefly: proximity ligation; in situ PLA with IZUMO1 and GLIPR1L1 antibodies on cells fixed in 4% PFA: pachytene spermatocytes, round spermatids and acrosome-reacted spermatozoa.
Assay [4] has the same target. Nature of the assay: co-IP; reciprocal; antibody cross-linked (DTSSP) to protein G magnetic beads, about 100 μg pre-cleared lysate of acrosome-reacted mouse spermatozoa, overnight at 4 °C, immunoblot.
The target is the same in assay [5]. Nature of the assay: proximity ligation; in situ PLA on fixed spermatozoa, negative controls with paired antibodies (IZUMO1 and tubulin; IZUMO1 and acrosin).
Assay [6] addresses T2, GLI pathogenesis-related 1-like 1 (GLIPR1L1) (mouse (endogenous in mouse spermatozoa)) (UniProt Q9DAG6).
T2 sequence: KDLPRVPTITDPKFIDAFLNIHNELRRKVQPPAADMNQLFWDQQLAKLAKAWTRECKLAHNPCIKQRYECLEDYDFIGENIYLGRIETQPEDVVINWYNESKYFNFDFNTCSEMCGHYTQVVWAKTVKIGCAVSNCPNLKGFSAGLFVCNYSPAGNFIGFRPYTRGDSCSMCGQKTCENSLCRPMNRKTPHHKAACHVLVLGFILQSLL
Nature of the assay: co-IP; reciprocal; antibody cross-linked (DTSSP) to protein G magnetic beads, about 100 μg pre-cleared lysate of acrosome-reacted mouse spermatozoa, overnight at 4 °C, immunoblot. Background: Immunoblotting shows a protein as a band on a membrane.

B1: GLI pathogenesis-related 1-like 1 (GLIPR1L1) (protein, UniProt Q9DAG6 28-236)
chain: KDLPRVPTITDPKFIDAFLNIHNELRRKVQPPAADMNQLFWDQQLAKLAKAWTRECKLAHNPCIKQRYECLEDYDFIGENIYLGRIETQPEDVVINWYNESKYFNFDFNTCSEMCGHYTQVVWAKTVKIGCAVSNCPNLKGFSAGLFVCNYSPAGNFIGFRPYTRGDSCSMCGQKTCENSLCRPMNRKTPHHKAACHVLVLGFILQSLL
On to B1, for which the binding result in assay [1] is recorded as “no binding”; in assay [2] it was “binds”; in assay [3], “binds”; in assay [4] it was “binds”.

B2: acrosin (protein, UniProt P23578 20-436)
chain: KDNTTCDGPCGLRFRQNSQAGTRIVSGQSAQLGAWPWMVSLQIFTSHNSRRYHACGGSLLNSHWVLTAAHCFDNKKKVYDWRLVFGAQEIEYGRNKPVKEPQQERYVQKIVIHEKYNVVTEGNDIALLKITPPVTCGNFIGPCCLPHFKAGPPQIPHTCYVTGWGYIKEKAPRPSPVLMEARVDLIDLDLCNSTQWYNGRVTSTNVCAGYPEGKIDTCQGDSGGPLMCRDNVDSPFVVVGITSWGVGCARAKRPGVYTATWDYLDWIASKIGPNALHLIQPATPHPPTTRHPMVSFHPPSLRPPWYFQHLPSRPLYLRPLRPLLHRPSSTQTSSSLMPLLSPPTPAQPASFTIATQHMRHRTTLSFARRLQRLIEALKMRTYPMKHPSQYSGPRNYHYRFSTFEPLSNKPSEPFLHS
In the case of B2, the binding result in assay [5] is on record as “no binding”.

B3: Izumo sperm-egg fusion protein 1 (IZUMO1) (protein, UniProt Q9D9J7 22-397)
chain: CIKCDQFVTDALKTFENTYLNDHLPHDIHKNVMRMVNHEVSSFGVVTSAEDSYLGAVDENTLEQATWSFLKDLKRITDSDLKGELFIKELLWMLRHQKDIFNNLARQFQKEVLCPNKCGVMSQTLIWCLKCEKQLHICRKSLDCGERHIEVHRSEDLVLDCLLSWHRASKGLTDYSFYRVWENSSETLIAKGKEPYLTKSMVGPEDAGNYRCVLDTINQGHATVIRYDVTVLPPKHSEENQPPNIITQEEHETPVHVTPQTPPGQEPESELYPELHPELYPELIPTVAQNPEKKMKTRLLILLTLGFVVLVASIIISVLHFRKVSAKLKNASDEVKPTASGSKSDQSLSQQMGLKKASQADFNSDYSGDKSEATEN
B3: the binding entry in assay [6] is reported as “binds”.
